# In all, about 110,000 compounds were measured (“z-score”: median about -0.1, highest 2% from about 2 on). This is one part of the list. The source made the active and inactive calls.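 The calls were made as follows: active = z-score in the third read window above 3 or below -3; inactive = the rest.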
# Target: Metabotropic glutamate receptor 8 (Rattus norvegicus) (UniProt P70579)
# Assay: rat mGluR8 modulators via GIRK flux, primary screen, cell-based, thallium flux, HTS (AID 488969)
# Settings: HEK293 rat mGluR8, GIRK (G protein-gated inwardly rectifying potassium channel) thallium flux, FluoZin2; at 10 µM; stronger effect = higher value; submaximal glutamate (EC20) added with thallium
# UniProt P70579, sequence (P70579 whole entry, looked up): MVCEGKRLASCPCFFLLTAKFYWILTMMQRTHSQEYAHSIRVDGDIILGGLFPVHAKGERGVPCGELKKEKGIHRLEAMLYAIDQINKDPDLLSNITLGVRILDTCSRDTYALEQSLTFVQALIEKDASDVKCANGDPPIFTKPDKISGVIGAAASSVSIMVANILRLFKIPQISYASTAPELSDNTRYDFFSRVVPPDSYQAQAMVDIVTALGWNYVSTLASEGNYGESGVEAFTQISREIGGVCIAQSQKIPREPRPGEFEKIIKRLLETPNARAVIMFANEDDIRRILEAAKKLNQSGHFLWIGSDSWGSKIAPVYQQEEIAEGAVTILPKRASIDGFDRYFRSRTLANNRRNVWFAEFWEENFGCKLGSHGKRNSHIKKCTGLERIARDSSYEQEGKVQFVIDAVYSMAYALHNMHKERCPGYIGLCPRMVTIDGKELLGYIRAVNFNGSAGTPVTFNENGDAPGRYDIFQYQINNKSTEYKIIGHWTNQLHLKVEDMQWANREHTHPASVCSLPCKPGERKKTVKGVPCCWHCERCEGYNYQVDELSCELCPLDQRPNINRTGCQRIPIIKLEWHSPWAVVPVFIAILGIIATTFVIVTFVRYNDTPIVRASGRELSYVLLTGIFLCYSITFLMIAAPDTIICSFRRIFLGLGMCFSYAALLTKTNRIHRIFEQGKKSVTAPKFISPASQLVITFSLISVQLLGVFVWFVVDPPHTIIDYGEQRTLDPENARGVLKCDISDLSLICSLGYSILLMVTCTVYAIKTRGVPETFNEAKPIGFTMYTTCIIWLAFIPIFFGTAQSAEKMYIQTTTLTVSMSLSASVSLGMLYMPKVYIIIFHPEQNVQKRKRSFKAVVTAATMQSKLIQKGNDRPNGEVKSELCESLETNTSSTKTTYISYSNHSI
row,SMILES,z-score
1,CSc1ccccc1NC(=O)CN(c1ccccc1)S(=O)(=O)N(C)C,-0.33
2,COc1ccc(-c2nc(CCNC(=O)c3ccco3)cs2)cc1OC,-0.532
3,Nc1c(NCc2ccccc2)c(=O)[nH]c(=O)n1Cc1ccccc1,-0.136
4,COc1ccc(CC(=O)NCc2nnc(SCC(=O)Nc3nccs3)n2-c2ccccc2)cc1,0.15
5,COc1ccc(NC(=O)C2CCN(S(=O)(=O)c3cccc4cccnc34)CC2)cc1,0.656
6,CCOC(=O)C(NC(=O)Nc1ccc(Cl)cn1)(Oc1ccc(F)cc1)C(F)(F)F (stereo not drawn),0.888
7,Cc1cccc(-c2nnn(CC/C(N)=N/O)n2)c1,0.0988
8,CC(C)NC(=O)c1onc(CSc2ccccc2)c1C(=O)O,-0.183
9,CS(=O)(=O)c1ccc2nc(NC(=O)Nc3ccc(Cl)cc3)sc2c1,0.161
10,CCOc1ccc2c(O)csc2c1,0.211
11,Cc1c2c(nc3c(C(=O)NC4CCCCC4C)cnn13)CCCC2 (stereo not drawn),-1.98
12,O=C(CN1CCN(c2ccccc2)CC1)Nc1ccccc1C(F)(F)F,-0.0406
13,COc1ccc(C(=O)/C=C/Nc2ccc(S(=O)(=O)Nc3cccc(C(C)=O)c3)cc2)cc1,-0.777
14,S=C(NCCCc1ccccc1)Nc1ccccc1Cl,0.383
15,CCCC(=O)Nc1ccc(Oc2ccc(NC(=O)CCC)cc2)cc1,0.157
16,O=C(c1cccs1)n1cc(C(=S)N2CCOCC2)c2ccccc21,-1.57
17,COc1cccc(NC(=O)CC2SC(=Nc3ccccc3)NC2=O)c1 (stereo not drawn),-0.402
18,CC(=O)Nc1cccc(NC(=O)CSc2nnnn2C)c1,-0.0629
19,CN(C)/C(CN1CCN(C=O)CC1)=C1\N=C(c2ccccc2)OC1=O,0.0463
20,COc1ccc(OC)c2c1nc1n2CCS1,-0.152
21,O=[N+]([O-])c1ccc(Sc2nccn2Cc2ccccc2)cc1,0.0581
22,CC1CCC(NC(=O)c2ccc(CS(=O)(=O)Cc3ccccc3F)o2)CC1 (stereo not drawn),-0.656
23,CN(C)c1ccc(/C=N/NC(=S)NCc2ccccc2)cc1,-0.185

row,SMILES,z-score
1,Cc1cc(C)c2c(C)nn(C3CCCCC3)c2n1,-0.408
2,COC(=O)C(NC(=O)c1ccccc1Cl)(Nc1ncc(S(=O)(=O)c2ccc([N+](=O)[O-])cc2)s1)C(F)(F)F (stereo not drawn),-0.242
3,O=C1CCCN1CC(CN1CCOCC1)Sc1nnnn1-c1ccccc1 (stereo not drawn),0.197
4,CCOC(=O)C(C)Sc1nc2c(cnn2-c2ccc(C)cc2)c(=O)[nH]1 (stereo not drawn),1.83
5,C=C(C)C1Cc2c(C)nn(-c3cc(C)c4ccccc4n3)c2C1 (stereo not drawn),0.162
6,Cc1ccccc1-c1nc(S(=O)(=O)c2ccc(Cl)cc2)c(NCCN2CCOCC2)o1,-0.166
7,COc1ccc(NC(=O)NC(C)c2ccncc2)cc1OC (stereo not drawn),active: -3.06
8,COc1cccc(-c2nc(OC(C)C)c3ccccc3n2)c1,0.988
9,C=CCOc1ccccc1/C=c1\sc2nc(=O)c(C)nn2c1=O,-0.929
10,CCOC(=O)CNC(=O)Nc1cccc(Cl)c1C,-0.0624
11,O=c1[nH]cnc2scc(-c3cccs3)c12,0.45
12,CSc1nc(-c2ccc(Cl)cc2)nn1C(=O)c1ccco1,0.0125
13,Cc1cc(NS(=O)(=O)c2ccc(NC(=S)NC(=O)c3ccccc3)cc2)no1,2.22
14,CCOC(=O)c1nnc(-c2ccccc2)o1,-0.712
15,O=C(C1=NNCC1c1ccccc1)C1CO1 (stereo not drawn),-0.32
16,CCN=C1SC(C(=O)Nc2cccc(Br)c2)CC(=O)N1CC (stereo not drawn),-0.0533
17,CC(=O)OC1CC(C)(C)N(OC(=O)c2ccc(N)cc2)C(C)(C)C1,0.0443
18,N#Cc1ccc2ccn(CC(=O)N3CCCc4ccccc43)c2c1,-0.703
19,CCOC(=O)CC(=O)CSc1nc2c(c(-c3cccs3)c1C#N)CCC2,-0.263
20,Cc1cc(C(=O)CSc2nnc3c(Cl)cc(Cl)cn23)c(C)n1C,-0.0644
21,O=C(Nc1cccnc1)c1cnc2ccccc2n1,0.415
22,Cc1nnc(-c2cccc(Br)c2)c2cn(-c3cccc(Br)c3)nc12,-0.337
23,O=C(COc1ccc(Cl)cc1)Nc1ccc2c(c1)CCC2,0.0759

row,SMILES,z-score
1,O=C(NC1=NCCS1)c1ccncc1,-0.0616
2,O=C(c1ccc([N+](=O)[O-])s1)N1CCN(c2ccccc2)CC1,-0.0818
3,COCCNc1ncnc2c1cnn2Cc1ccc(Cl)cc1,-0.482
4,COc1ccc(C(=O)Nc2cc(C(F)(F)F)ccc2Cl)cc1OC,-0.412
5,Cc1nn(-c2ccccc2)c(C)c1/C=N/NC(=O)CSc1nc2ccccc2c(=O)n1-c1ccc(Br)cc1,0.239
6,COc1ccc(CNC(=O)c2ccc(C)o2)cc1,0.531
7,CCOC(=O)c1c(NC(=O)C2C3C=CC(C3)C2(C)C(=O)O)sc2c1CCCC2 (stereo not drawn),-0.0926
8,Cn1c(=O)c2cc(S(=O)(=O)N3CCC(c4ccccc4)CC3)ccc2n(C)c1=O,-0.0689
9,O=C(N/N=C/c1ccc(N2CCCCC2)o1)C(O)(c1ccccc1)c1ccccc1,-0.675
10,O=C(c1sc2cc(F)ccc2c1Cl)N1CCN(c2cccc(Cl)c2)CC1,-0.403
11,Clc1ccc(N=c2ssnc2Cl)cc1,-0.0573
12,CCOC(=O)C(C)Sc1snnc1C (stereo not drawn),0.011
13,O=C(c1cccc([N+](=O)[O-])c1)N(c1ccccn1)c1ccccn1,-0.0172
14,O=C(c1cccnc1NCc1ccccc1)N1CCOCC1,0.0863
15,CCc1nc(SCC(=O)Nc2ccc3c(c2)OCCO3)c2oc3ccccc3c2n1,0.21
16,CCCc1cc(=O)[nH]c(SCC(=O)N2N=C(c3ccc(Cl)cc3)CC2c2ccco2)n1 (stereo not drawn),-0.126
17,CC1(C)C(c2ccco2)=[N+]([O-])C2(CCCCC2=O)N1O (stereo not drawn),0.197
18,CCCCc1ccc(NC(=O)COc2ccc(C(=O)Nc3ccccc3OC)cc2)cc1,-0.367
19,O=C1CCCN1c1cc(Cl)ccc1Cl,0.195
20,CCOC(=O)C(NC(=O)Nc1ccc(O)cc1)(c1ccccc1)C(F)(F)F (stereo not drawn),-0.184
21,O=C(Nc1nccs1)c1cccc(NC(=O)C2CC2)c1,-0.0597
22,CCOc1ccc(-c2n[nH]c(C)c2-c2ccccc2OC)c(O)c1,-0.365
23,COc1cc(C2CC(=O)N3CN(Cc4ccccc4)CSC3=C2C#N)ccc1OCc1ccccc1 (stereo not drawn),-0.801

row,SMILES,z-score
1,CC(=O)Nc1ccc(S(=O)(=O)NCC2CCC(C(=O)N3CCCCCC3)CC2)cc1 (stereo not drawn),-0.0258
2,CCOC(=O)c1cnn(-c2nc(-c3ccccc3)cs2)c1C(F)(F)F,-0.141
3,O=c1oc2ccccc2cc1-c1csc(Cc2nc(-c3ccc(Cl)cc3)cs2)n1,0.0414
4,CC(=O)NC1C(Oc2ccccc2C)OC2COC(c3ccco3)OC2C1O (stereo not drawn),-0.111
5,Cc1cccc(NC(=S)NNC(=O)Cc2ccccc2)c1,0.0541
6,Cc1ccc(C)c(NC(=O)C(C)CC2COCCO2)c1 (stereo not drawn),0.147
7,Cn1c(CSCc2ccc(F)cc2)nnc1SCC(=O)N1CCN(c2ccccc2)CC1,-0.4
8,Nc1cccc(-c2cc(-c3ccccc3)nc(-c3cccc(N)c3)n2)c1,-0.135
9,CCSc1nc2c(c(=O)n(C)c(=O)n2C)n1Cc1ccc(Cl)cc1,-0.345
10,Cc1cccc(C)c1NC(=O)CN(C)C(=O)C(c1ccccc1)c1ccccc1,-0.041
11,Cn1c(SCC(=O)Nc2ccc3c(c2)OCO3)nnc1-c1cnccn1,-0.985
12,CC(C)OC(=O)c1c(NC(=O)c2ccco2)sc2c1CCCC2,0.0071
13,Cc1ccccc1Cc1c(C)nc2c(C(=O)N3CCN(Cc4ccc5c(c4)OCO5)CC3)cnn2c1C,-0.336
14,COc1ccccc1Oc1nnnn1-c1ccc(C(N)=O)cc1,-0.304
15,CC(C)(C)C(=O)Nc1sc2c(c1C#N)CCCCC2,-0.474
16,CSc1nc(/C=C2\C=Nc3ccccc32)c(O)n1C,0.404
17,Cn1c(=O)n(C)c2cc(NC(=O)C(F)(F)F)ccc21,-0.389
18,C/C(N)=C(/C#N)C(=O)CSc1nc2ccccc2c(=O)n1CCCO,-0.389
19,O=c1[nH]c2cccc(Cl)c2n(CCNc2ncc(C(F)(F)F)cc2Cl)c1=O,-0.343
20,CCOC(=O)c1c(C)[nH]c(C(=O)COC(=O)[C@H](C)NC(=O)c2ccccc2Cl)c1C,-0.8
21,Cc1ccc(-c2nnn(CCC(=O)N3CCCCC3C)n2)cc1 (stereo not drawn),1.52
22,CN(C)C(=O)NC(Nc1ccc(Cl)cc1Cl)C(Cl)(Cl)Cl (stereo not drawn),-1.77
23,Cn1c(=O)cc(SCC(=O)N2CCOCC2)c2ccc(Cl)cc21,0.102

row,SMILES,z-score
1,Cc1[nH]c2ccccc2c1C(=O)COC(=O)Cn1cnc2ccccc21,-0.295
2,O=S(=O)(Nc1ncccn1)c1ccc(Nc2ncnc3ccccc23)cc1,0.439
3,COc1ccc(C2CC(c3ccccc3)=NN2C(=O)COC(=O)c2cnc(Cl)c(Cl)c2)cc1 (stereo not drawn),0.118
4,CSc1ccc(/C=C(\C(=O)O)c2ccc(S(=O)(=O)N3CCCCC3)s2)cc1,-0.317
5,COc1ccc(O)c(/C=C(\C#N)C(=O)Nc2cccnc2)c1,-0.54
6,Cc1ccc(CC(=O)NC(C)CCc2ccccc2)cc1 (stereo not drawn),-0.0658
7,C=COC(=O)CSc1nc(-c2cccs2)ccc1C#N,-0.173
8,CCOC(=O)c1ccccc1NC(=O)c1c(O)c2ccccc2n(CC)c1=O,-0.929
9,NC(=O)NC(=O)CSc1nnc(-c2ccco2)n1Cc1ccccc1,-0.293
10,CCc1c(C)c2ccc(OCC(=O)OC)cc2oc1=O,-0.446
11,CC(=O)Nc1ccc(S(=O)(=O)CCC(=O)O)cc1,0.965
12,CCc1cc2c(=O)c(-c3nc4ccccc4n3C)coc2c(CN2CCOCC2)c1O,-0.0262
13,COc1ccc(C(=O)N2CCN(S(=O)(=O)c3cc(Cl)ccc3OC)CC2)cc1,-0.215
14,CN1CCN(/N=C/c2nc(-c3ccccc3Cl)n3ccccc23)CC1,-0.168
15,N#CC1(c2nc3ccccc3[nH]2)CC1c1ccc2c(c1)OCO2 (stereo not drawn),1.04
16,Cc1cc(C)cc(N=C(NO)c2cccc([N+](=O)[O-])c2)c1,-0.268
17,COc1ccccc1N1CCN(C(=O)CCCCn2c(=O)[nH]c3ccsc3c2=O)CC1,-1.61
18,O=C1/C(=C/c2ccncc2)SC(=S)N1C1CCCCC1,1.43
19,CC(C)=C1SC(N2CCOCC2)=NC1=O,-0.129
20,COc1ccc(NC(=O)C(C)N2c3cccc4cccc(c34)S2(=O)=O)cc1 (stereo not drawn),-0.484
21,O=C(NC(=S)Nc1cccc(Cl)c1N1CCCCC1)c1cccs1,2.55

# From PubChem BioAssay AID488969 (Vanderbilt High Throughput Screening Facility, 2010)
